# Data as given in the supplement of paper PMC8728848.
# The list shows a part of the results.
# B1: SalT (Orysata sativa) (protein)
# chain: MTLVKIGLWGGNGGSAQDISVPPKKLLGVTIYSSDAIRSIAFNYIGVDGQEYAIGPWGGGEGTSTEIKLGSSEHIKEISGTHGPVYDLADIVTYLKIVTSANNTYEAGVPNGKEFSIPLQDSGHVVGFFGRSGTLIDAIGIYVHPILEQKLISEEDLNSAVDHHHHHH
# Experiments:
# Assay in all cases: glycan array binding signal (z-score within array); higher = stronger binding
# Settings in all cases: glycan notation: IUPAC condensed, linker removed
# Gal(b1-4)Glc6S = target: Gal(b1-4)Glc6S
# Outline: (§1)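 Arrays were curated from the Consortium for Functional Glycomics database, 3228 in total, and kept only where the protein sequence was available. Binding is expressed as a within-array Z-score. This score was averaged across arrays of the same protein sequence at different concentrations or buffers and across linkers, and negative values can be read as non-binding.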
# Gal(b1-4)GlcNAc = target: Gal(b1-4)GlcNAc
# Outline: as §1
# [1] = target: Gal(b1-4)GlcNAc(a1-6)Gal(b1-4)GlcNAc
# Outline: as §1
# Gal(b1-4)GlcNAc(b1-2)Man = target: Gal(b1-4)GlcNAc(b1-2)Man
# Outline: as §1
# [2] = target: Gal(b1-4)GlcNAc(b1-2)Man(a1-3)Man(b1-4)GlcNAc(b1-4)GlcNAc
# Outline: as §1
# [3] = target: Gal(b1-4)GlcNAc(b1-2)Man(a1-3)[Gal(b1-4)GlcNAc(b1-2)Man(a1-6)]Man(b1-4)GlcNAc(b1-4)GlcNAc
# Outline: as §1
# [4] = target: Gal(b1-4)GlcNAc(b1-2)Man(a1-3)[Gal(b1-4)GlcNAc(b1-2)Man(a1-6)]Man(b1-4)GlcNAc(b1-4)[Fuc(a1-6)]GlcNAc
# Outline: as §1
# [5] = target: Gal(b1-4)GlcNAc(b1-2)Man(a1-3)[Gal(b1-4)GlcNAc(b1-2)][GlcNAc(b1-4)]Man(b1-4)GlcNAc(b1-4)GlcNAc
# Outline: as §1
# [6] = target: Gal(b1-4)GlcNAc(b1-2)Man(a1-3)[GlcNAc(b1-2)Man(a1-6)]Man(b1-4)GlcNAc(b1-4)GlcNAc
# Outline: as §1
# [7] = target: Gal(b1-4)GlcNAc(b1-2)Man(a1-3)[Man(a1-6)]Man(b1-4)GlcNAc(b1-4)GlcNAc
# Outline: as §1
# [8] = target: Gal(b1-4)GlcNAc(b1-2)Man(a1-6)Man(b1-4)GlcNAc(b1-4)GlcNAc
# Outline: as §1
# [9] = target: Gal(b1-4)GlcNAc(b1-2)Man(a1-6)[GlcNAc(b1-2)Man(a1-3)]Man(b1-4)GlcNAc(b1-4)GlcNAc
# Outline: as §1
# [10] = target: Gal(b1-4)GlcNAc(b1-2)Man(a1-6)[Man(a1-3)]Man(b1-4)GlcNAc(b1-4)GlcNAc
# Outline: as §1
# [11] = target: Gal(b1-4)GlcNAc(b1-2)[Gal(b1-4)GlcNAc(b1-4)]Man(a1-3)[Gal(b1-4)GlcNAc(b1-2)Man(a1-6)]Man(b1-4)GlcNAc(b1-4)GlcNAc
# Outline: as §1
# [12] = target: Gal(b1-4)GlcNAc(b1-2)[Gal(b1-4)GlcNAc(b1-4)]Man(a1-3)[Gal(b1-4)GlcNAc(b1-2)[Gal(b1-4)GlcNAc(b1-6)]Man(a1-6)]Man(b1-4)GlcNAc(b1-4)GlcNAc
# Outline: as §1
# [13] = target: Gal(b1-4)GlcNAc(b1-2)[Gal(b1-4)GlcNAc(b1-4)]Man(a1-3)[GlcNAc(b1-4)][Gal(b1-4)GlcNAc(b1-2)Man(a1-6)]Man(b1-4)GlcNAc(b1-4)GlcNAc
# Outline: as §1
# [14] = target: Gal(b1-4)GlcNAc(b1-2)[Gal(b1-4)GlcNAc(b1-4)]Man(a1-3)[GlcNAc(b1-4)][Gal(b1-4)GlcNAc(b1-2)[Gal(b1-4)GlcNAc(b1-6)]Man(a1-6)]Man(b1-4)GlcNAc(b1-4)GlcNAc
# Outline: as §1
# [15] = target: Gal(b1-4)GlcNAc(b1-2)[Gal(b1-4)GlcNAc(b1-4)]Man(a1-3)[GlcNAc(b1-4)][Gal(b1-4)GlcNAc(b1-2)[Gal(b1-4)GlcNAc(b1-6)]Man(a1-6)]Man(b1-4)GlcNAc(b1-4)[Fuc(a1-6)]GlcNAc
# Outline: as §1
# [16] = target: Gal(b1-4)GlcNAc(b1-2)[Gal(b1-4)GlcNAc(b1-6)]Man(a1-6)[Gal(b1-4)GlcNAc(b1-2)Man(a1-3)]Man(b1-4)GlcNAc(b1-4)GlcNAc
# Outline: as §1
# [17] = target: Gal(b1-4)GlcNAc(b1-2)[Gal(b1-4)GlcNAc(b1-6)]Man(a1-6)[Gal(b1-4)GlcNAc(b1-2)Man(a1-3)]Man(b1-4)GlcNAc(b1-4)[Fuc(a1-6)]GlcNAc
# Outline: as §1
# [18] = target: Gal(b1-4)GlcNAc(b1-2)[Gal(b1-4)GlcNAc(b1-6)]Man(a1-6)[GlcNAc(b1-4)][Gal(b1-4)GlcNAc(b1-2)Man(a1-3)]Man(b1-4)GlcNAc(b1-4)GlcNAc
# Outline: as §1
# [19] = target: Gal(b1-4)GlcNAc(b1-3)Gal(b1-3)GlcNAc
# Outline: as §1
# [20] = target: Gal(b1-4)GlcNAc(b1-3)Gal(b1-4)Glc
# Outline: as §1
# [21] = target: Gal(b1-4)GlcNAc(b1-3)Gal(b1-4)GlcNAc
# Outline: as §1
# [22] = target: Gal(b1-4)GlcNAc(b1-3)Gal(b1-4)GlcNAc(b1-3)Gal(b1-4)GlcNAc
# Outline: as §1
# [23] = target: Gal(b1-4)GlcNAc(b1-3)Gal(b1-4)[Fuc(a1-3)GlcNAc(b1-6)]Gal(b1-4)Glc
# Outline: as §1
# [24] = target: Gal(b1-4)GlcNAc(b1-3)Gal(b1-4)[Fuc(a1-3)]GlcNAc(b1-3)Gal(b1-4)[Fuc(a1-3)]GlcNAc
# Outline: as §1
# [25] = target: Gal(b1-4)GlcNAc(b1-3)GalNAc
# Outline: as §1
# [26] = target: Gal(b1-4)GlcNAc(b1-3)[Gal(b1-4)GlcNAc(b1-6)]Gal(b1-4)GlcNAc
# Outline: as §1
# [27] = target: Gal(b1-4)GlcNAc(b1-3)[Gal(b1-4)GlcNAc(b1-6)]GalNAc
# Outline: as §1
# [28] = target: Gal(b1-4)GlcNAc(b1-3)[GlcNAc(b1-6)]Gal(b1-4)GlcNAc
# Outline: as §1
# [29] = target: Gal(b1-4)GlcNAc(b1-6)Gal(b1-4)GlcNAc
# Outline: as §1
# [30] = target: Gal(b1-4)GlcNAc(b1-6)GalNAc
# Outline: as §1
# [31] = target: Gal(b1-4)GlcNAc(b1-6)[Gal(b1-3)]GalNAc
# Outline: as §1
# Gal(b1-4)GlcNAc6P = target: Gal(b1-4)GlcNAc6P
# Outline: as §1
# Gal(b1-6)Gal = target: Gal(b1-6)Gal
# Outline: as §1
# Gal3S(b1-3)GalNAc = target: Gal3S(b1-3)GalNAc
# Outline: as §1
# Gal3S(b1-3)GlcNAc = target: Gal3S(b1-3)GlcNAc
# Outline: as §1
# [32] = target: Gal3S(b1-3)[Fuc(a1-4)]GlcNAc
# Outline: as §1
# Gal3S(b1-4)Glc = target: Gal3S(b1-4)Glc
# Outline: as §1
# Gal3S(b1-4)Glc6S = target: Gal3S(b1-4)Glc6S
# Outline: as §1
# Gal3S(b1-4)GlcNAc = target: Gal3S(b1-4)GlcNAc
# Outline: as §1
# Gal3S(b1-4)GlcNAc6S = target: Gal3S(b1-4)GlcNAc6S
# Outline: as §1
# [33] = target: Gal3S(b1-4)[Fuc(a1-3)]Glc
# Outline: as §1
# [34] = target: Gal3S(b1-4)[Fuc(a1-3)]Glc6S
# Outline: as §1
binder,measurement,setting,value
B1,glycan array binding signal (z-score),Gal(b1-4)Glc6S,-0.306
same,glycan array binding signal (z-score),Gal(b1-4)GlcNAc,-0.307
same,glycan array binding signal (z-score),[1],-0.306
same,glycan array binding signal (z-score),Gal(b1-4)GlcNAc(b1-2)Man,-0.307
same,glycan array binding signal (z-score),[2],3.14
same,glycan array binding signal (z-score),[3],3.29
same,glycan array binding signal (z-score),[4],1.08
same,glycan array binding signal (z-score),[5],0.03
same,glycan array binding signal (z-score),[6],2.65
same,glycan array binding signal (z-score),[7],2.43
same,glycan array binding signal (z-score),[8],-0.297
same,glycan array binding signal (z-score),[9],2.65
same,glycan array binding signal (z-score),[10],4.64
same,glycan array binding signal (z-score),[11],-0.203
same,glycan array binding signal (z-score),[12],-0.118
same,glycan array binding signal (z-score),[13],-0.309
same,glycan array binding signal (z-score),[14],-0.31
same,glycan array binding signal (z-score),[15],-0.303
same,glycan array binding signal (z-score),[16],3.13
same,glycan array binding signal (z-score),[17],0.799
same,glycan array binding signal (z-score),[18],0.028
same,glycan array binding signal (z-score),[19],-0.308
same,glycan array binding signal (z-score),[20],-0.306
same,glycan array binding signal (z-score),[21],-0.307
same,glycan array binding signal (z-score),[22],-0.303
same,glycan array binding signal (z-score),[23],-0.31
same,glycan array binding signal (z-score),[24],-0.308
same,glycan array binding signal (z-score),[25],-0.31
same,glycan array binding signal (z-score),[26],-0.31
same,glycan array binding signal (z-score),[27],-0.306
same,glycan array binding signal (z-score),[28],-0.307
same,glycan array binding signal (z-score),[29],-0.31
same,glycan array binding signal (z-score),[30],-0.307
same,glycan array binding signal (z-score),[31],-0.308
same,glycan array binding signal (z-score),Gal(b1-4)GlcNAc6P,-0.308
same,glycan array binding signal (z-score),Gal(b1-6)Gal,-0.308
same,glycan array binding signal (z-score),Gal3S(b1-3)GalNAc,-0.308
same,glycan array binding signal (z-score),Gal3S(b1-3)GlcNAc,-0.308
same,glycan array binding signal (z-score),[32],-0.309
same,glycan array binding signal (z-score),Gal3S(b1-4)Glc,-0.309
same,glycan array binding signal (z-score),Gal3S(b1-4)Glc6S,-0.309
same,glycan array binding signal (z-score),Gal3S(b1-4)GlcNAc,-0.309
same,glycan array binding signal (z-score),Gal3S(b1-4)GlcNAc6S,-0.308
same,glycan array binding signal (z-score),[33],-0.305
same,glycan array binding signal (z-score),[34],-0.3
